Measured values published in paper PMC11995724, “Antibiotic target discovery by integrated phenotypic and activity-based profiling of electrophilic fragments” (Cell chemical biology, 2025).
Among all 3,200 compounds or so, about 110 (3.4%) showed an effect of 50% or more. The list shows a part of the results.

tested on: T1, V. cholerae SAD30; parameters: species or system S. aureus MSSA476 (TSB) or V. cholerae SAD30 (LB); 384-well bacterial growth screen at 25 uM, OD600 relative to DMSO control; conditions: relative growth, OD600, LB; 25 µM; inhibitor
T1 construct: SAD30

| SMILES | % of control remaining [%] |
| --- | --- |
| C=CC(=O)Nc1ncc(-c2cccc(C)c2)s1 [1-P14, N-[5-(3-methylphenyl)-1,3-thiazol-2-yl]prop-2-enamide] | 122.915 |
| CC(=O)NCCc1ccc(C(=O)CCl)cc1 [10-N03, N-{2-[4-(2-chloroacetyl)phenyl]ethyl}acetamide] | 115.8 |
| C=CC(=O)N(CC)CC(=O)N1CCC(c2nncn2C)CC1 [2-L10, N-ethyl-N-{2-[4-(4-methyl-4H-1,2,4-triazol-3-yl)piperidin-1-yl]-2-oxoethyl}prop-2-enamide] | 89.5783 |
| COC(=O)c1sccc1N1C(=O)C=CC1=O [10-A07, methyl 3-(2,5-dioxo-2,5-dihydro-1H-pyrrol-1-yl)thiophene-2-carboxylate] | 26.4952 |
| C=CC(=O)N(C)CC(=O)NC1CCN(C(=O)c2ccc(C)cc2)CC1 [2-N14, N-methyl-N-({[1-(4-methylbenzoyl)piperidin-4-yl]carbamoyl}methyl)prop-2-enamide] | 87.4168 |
| CC(Cl)C(=O)N1CCN(Cc2cnn(-c3ccccc3)c2)CC1 (centres unmarked) [7-F13, 2-chloro-1-{4-[(1-phenyl-1H-pyrazol-4-yl)methyl]piperazin-1-yl}propan-1-one] | 72.2947 |
| CCC(NC(=O)CCl)c1cccc(OC)n1 (centres unmarked) [7-D08, 2-chloro-N-[1-(6-methoxypyridin-2-yl)propyl]acetamide] | 84.8505 |
| Cc1ccc(NC(=O)CCl)cc1S(=O)(=O)N1CCOCC1 [4-L07, 2-chloro-N-[4-methyl-3-(morpholine-4-sulfonyl)phenyl]acetamide] | 104.55 |
| O=CN1CCN(C(=O)CCl)CC1 [6-M17, 4-(2-chloroacetyl)piperazine-1-carbaldehyde] | 91.0039 |
| Cc1cc(C)c(NC(=O)C(C#N)=Cc2ccccc2)c(C)c1 [8-E19, 2-cyano-3-phenyl-N-(2,4,6-trimethylphenyl)prop-2-enamide] | 73.7593 |
| CCc1nc2c(s1)C(N(C)C(=O)C(C)Cl)CCC2 (centres unmarked) [7-N17, 2-chloro-N-(2-ethyl-4,5,6,7-tetrahydro-1,3-benzothiazol-7-yl)-N-methylpropanamide] | 75.2024 |
| N#CC(=Cc1ccc([N+](=O)[O-])cc1)C(=O)Nc1ccc(Cl)cc1 [8-O11, N-(4-chlorophenyl)-2-cyano-3-(4-nitrophenyl)prop-2-enamide] | 68.7288 |
| O=C(CCl)NCc1cn[nH]c1C(F)F [7-D05, 2-chloro-N-{[5-(difluoromethyl)-1H-pyrazol-4-yl]methyl}acetamide] | 91.5909 |
| C=CC(=O)NC1CC2CCC(C1)S2 (centres unmarked) [1-B06, N-{8-thiabicyclo[3.2.1]octan-3-yl}prop-2-enamide] | 104.024 |
| C=CC(=O)NCc1nc(OC)cc(OC)n1 [2-M20, N-[(4,6-dimethoxypyrimidin-2-yl)methyl]prop-2-enamide] | 92.5118 |
| N#CC(=Cc1ccc(Oc2cnccn2)cc1)C(=O)NC1CCCC1 [9-F20, 2-cyano-N-cyclopentyl-3-[4-(pyrazin-2-yloxy)phenyl]prop-2-enamide] | 83.2767 |
| CC(Cl)C(=O)NCc1nnnn1CC1CC1 (centres unmarked) [6-F14, 2-chloro-N-{[1-(cyclopropylmethyl)-1H-1,2,3,4-tetrazol-5-yl]methyl}propanamide] | 80.2351 |
| COc1cc(OC)c(NC(=O)CCl)cc1Cl [4-G11, 2-chloro-N-(5-chloro-2,4-dimethoxyphenyl)acetamide] | 92.8186 |
| C=CC(=O)NCCN1CCn2nccc2C1 [3-F21, N-(2-{4H,5H,6H,7H-pyrazolo[1,5-a]pyrazin-5-yl}ethyl)prop-2-enamide] | 96.5006 |
| CC(Cl)C(=O)N1CCN(C)C(c2nc(C3CC3)no2)C1 (centres unmarked) [7-I08, 2-chloro-1-[3-(3-cyclopropyl-1,2,4-oxadiazol-5-yl)-4-methylpiperazin-1-yl]propan-1-one] | 78.903 |
| Cc1ccc(C)c(-c2cc(NC(=O)CCl)n(-c3ccccc3)n2)c1 [4-M14, 2-chloro-N-[3-(2,5-dimethylphenyl)-1-phenyl-1H-pyrazol-5-yl]acetamide] | 99.8922 |
| CCC(c1cc(Cl)cc(Cl)c1)N(C)C(=O)CCl (centres unmarked) [7-L10, 2-chloro-N-[1-(3,5-dichlorophenyl)propyl]-N-methylacetamide] | 75.0702 |

| SMILES | % of control remaining [%] |
| --- | --- |
| COCC(C)NC(=O)C(C#N)=Cc1cccc(F)c1F (centres unmarked) [9-F09, 2-cyano-3-(2,3-difluorophenyl)-N-(1-methoxypropan-2-yl)prop-2-enamide] | 89.8029 |
| CC(Cl)C(=O)N1CCC(c2nc(C3CC3)no2)(C(F)(F)F)C1 (centres unmarked) [7-K12, 2-chloro-1-[3-(3-cyclopropyl-1,2,4-oxadiazol-5-yl)-3-(trifluoromethyl)pyrrolidin-1-yl]propan-1-one] | 76.2597 |
| Cc1cc(C(C)N(Cc2c(C)noc2C)C(=O)CCl)c(C)o1 (centres unmarked) [5-E16, 2-chloro-N-[(3,5-dimethyl-1,2-oxazol-4-yl)methyl]-N-[1-(2,5-dimethylfuran-3-yl)ethyl]acetamide] | 91.6255 |
| CCOc1ccccc1NC(=O)C(C#N)=Cc1c(F)cccc1F [8-G21, 2-cyano-3-(2,6-difluorophenyl)-N-(2-ethoxyphenyl)prop-2-enamide] | 75.2549 |
| CNC(=O)c1ccc(O)c(NC(=O)CCl)c1 [5-C10, 3-(2-chloroacetamido)-4-hydroxy-N-methylbenzamide] | 93.1386 |
| CC(C#N)CSc1ccccc1NC(=O)CCl (centres unmarked) [6-K16, 2-chloro-N-{2-[(2-cyano-2-methylethyl)sulfanyl]phenyl}acetamide] | 86.757 |
| COc1ccc(Cl)cc1C(O)CNC(=O)CCl (centres unmarked) [7-N06, 2-chloro-N-[2-(5-chloro-2-methoxyphenyl)-2-hydroxyethyl]acetamide] | 88.8155 |
| Cc1ccc(C)c(N2C(=O)C=CC2=O)c1 [10-F13, 1-(2,5-dimethylphenyl)-2,5-dihydro-1H-pyrrole-2,5-dione] | 31.3267 |
| C=CC(=O)N1CCC(C(=O)NC2CCc3ncnn3C2)CC1 (centres unmarked) [2-P20, 1-(prop-2-enoyl)-N-{5H,6H,7H,8H-[1,2,4]triazolo[1,5-a]pyridin-6-yl}piperidine-4-carboxamide] | 97.2981 |
| CC(C)(C)c1ccc(C=C(C#N)C(=O)Nc2ccc(C(=O)O)cc2)cc1 [9-I21, 4-[3-(4-tert-butylphenyl)-2-cyanoprop-2-enamido]benzoic acid] | 98.9123 |
| Cc1cn2c(C=C(C#N)C(=O)Nc3c(C)cccc3C)c(C)nc2s1 [9-N19, 2-cyano-3-{2,6-dimethylimidazo[2,1-b][1,3]thiazol-5-yl}-N-(2,6-dimethylphenyl)prop-2-enamide] | 83.2767 |
| CC1=C(C#N)C(=O)N(C)C(=O)C1=Cc1ccc(-c2ccc(F)cc2)o1 [9-I18, 5-{[5-(4-fluorophenyl)furan-2-yl]methylidene}-1,4-dimethyl-2,6-dioxo-1,2,5,6-tetrahydropyridine-3-carbonitrile] | 86.4038 |
| CC(Cl)C(=O)N[C@H]1CCO[C@@H]1c1nccn1-c1ccccc1 (mixture of isomers) [7-A12, rac-2-chloro-N-[(2R,3R)-2-(1-phenyl-1H-imidazol-2-yl)oxolan-3-yl]propanamide] | 85.1148 |
| CC(Cl)C(=O)N1CCCC1Cc1cccc(F)c1F (centres unmarked) [7-E19, 2-chloro-1-{2-[(2,3-difluorophenyl)methyl]pyrrolidin-1-yl}propan-1-one] | 66.4794 |
| C=CC(=O)Nc1ccccc1CCC(N)=O [1-A18, N-[2-(2-carbamoylethyl)phenyl]prop-2-enamide] | 86.6966 |
| CC(Cl)C(=O)N1CCN(C(=O)CN2C(=O)CCC2=O)CC1 (centres unmarked) [6-B11, 1-{2-[4-(2-chloropropanoyl)piperazin-1-yl]-2-oxoethyl}pyrrolidine-2,5-dione] | 80.2351 |
| C=CC(=O)Nc1ccc(C(=O)N2CCC(C(C)C)CC2)cc1 [3-B15, N-{4-[4-(propan-2-yl)piperidine-1-carbonyl]phenyl}prop-2-enamide] | 103.735 |
| C=CC(=O)N[C@@H](C)c1ccccc1OC [1-K06, N-[(1S)-1-(2-methoxyphenyl)ethyl]prop-2-enamide] | 89.6861 |
| N#CC(=Cc1cccc2ccccc12)C(=O)NC1CC1 [9-O03, 2-cyano-N-cyclopropyl-3-(naphthalen-1-yl)prop-2-enamide] | 97.2808 |
| C=CC(=O)NC1COC(C)C1 (centres unmarked) [1-H17, N-(5-methyloxolan-3-yl)prop-2-enamide] | 87.4439 |
| C=CC(=O)N1CCC(c2ncc(C(=O)O)o2)CC1 [2-G19, 2-[1-(prop-2-enoyl)piperidin-4-yl]-1,3-oxazole-5-carboxylic acid] | 94.519 |
| COc1cccc(NC(=O)C(C#N)=Cc2ccc(C#N)cc2)c1 [8-G18, 2-cyano-3-(4-cyanophenyl)-N-(3-methoxyphenyl)prop-2-enamide] | 67.913 |
